# In the BET-seq Pho4 binding data (Le et al. 2018):
# The list shows a part of the results. The energies were worked out here from pooled read counts, against the library average; single values are noisy.
# Molecular target: T1, Pho4 (S. cerevisiae) (UniProt P07270)
# T1 sequence: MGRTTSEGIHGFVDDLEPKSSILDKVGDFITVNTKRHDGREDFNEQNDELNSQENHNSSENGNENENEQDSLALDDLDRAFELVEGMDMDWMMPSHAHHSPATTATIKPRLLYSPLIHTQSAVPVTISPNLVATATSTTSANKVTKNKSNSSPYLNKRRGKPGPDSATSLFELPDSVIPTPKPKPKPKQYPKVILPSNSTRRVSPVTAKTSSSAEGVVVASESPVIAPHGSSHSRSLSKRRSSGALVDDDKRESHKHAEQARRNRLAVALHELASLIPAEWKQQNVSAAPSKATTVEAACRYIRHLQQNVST
# Experiment: relative binding free energy (BET-seq); higher = weaker binding
# Settings: reference: library average
row,Sequence,relative binding free energy [kcal/mol]
1,ATCGTCACGTGAGTGC,0.28
2,AGGTTCACGTGGAGCA,0.42
3,TTAAACACGTGAGTAA,0.28
4,GGTGACACGTGATGGC,0.26
5,CATTTCACGTGATTGT,0.2
6,AGGTTCACGTGCGTGT,0.21
7,ATCGTCACGTGTTTTG,0.16
8,TGTTGCACGTGGTCTT,-0.19
9,ATAATCACGTGTGTCT,0.2
10,CGGGACACGTGAAGTG,0.24
11,TTGTACACGTGCGTAA,0.08
12,AGGGACACGTGGAGAA,0.13
13,GGTCTCACGTGTATGG,0.16
14,AGGGTCACGTGGAGCA,0.11
15,TAATGCACGTGTGCTG,-0.01
16,GTGTACACGTGGGGCG,0.04
17,GAGATCACGTGTGGGA,0.24
18,TAACGCACGTGTTTGT,-0.15
19,TGATTCACGTGTTGAT,0.2
20,AAGGTCACGTGAATTA,0.26
21,CTTTTCACGTGGTGAT,0.32
22,TAGCACACGTGTTTTG,-0.05
23,GTAGGCACGTGGGGAA,-0.17

row,Sequence,relative binding free energy [kcal/mol]
1,ATTTACACGTGAGTGA,0.14
2,ACTTACACGTGAGGGT,0.35
3,GACAGCACGTGGGGTA,-0.23
4,GGGCCCACGTGGTAGT,-0.05
5,GGGGACACGTGGGGCC,-0.09
6,TCGAGCACGTGTGCGT,-0.11
7,GAATGCACGTGGGATT,0.09
8,ACGTACACGTGGGGTG,-0.19
9,TAACACACGTGGGTGT,-0.1
10,GAGGACACGTGTGTAG,0.07
11,GGCTTCACGTGGCGAG,0.29
12,ATGGGCACGTGCGGAC,-0.16
13,AGGATCACGTGTAGGA,0.06
14,CAGATCACGTGGTATG,0.05
15,TTTCACACGTGAGGCG,0.28
16,GGAATCACGTGTAGAA,0.35
17,TAGGACACGTGGGACT,-0.04
18,TTGATCACGTGTATTT,0.14
19,TTACGCACGTGGGGGT,-0.23
20,TATATCACGTGCGGGT,0.09
21,TTTTACACGTGCGGTC,0.16
22,GTCTACACGTGGTATT,0.09
23,TACTGCACGTGGTGGA,0.03

row,Sequence,relative binding free energy [kcal/mol]
1,AGGTTCACGTGTGCGC,0.22
2,AGCTTCACGTGAGGTT,0.32
3,AGGGGCACGTGACGGT,-0.03
4,GCTGGCACGTGTGTCG,-0.1
5,TGTGGCACGTGCATTT,-0.14
6,TTGCTCACGTGAACGG,0.43
7,TAAATCACGTGTTCGT,0.13
8,TGTGGCACGTGTGGGG,0.04
9,ATGCGCACGTGGAGTT,-0.03
10,CGTATCACGTGTAGTG,0.03
11,AGGGGCACGTGCCGAG,-0.2
12,TGGTACACGTGTGGGG,0.12
13,GGTTGCACGTGAAAGA,0.26
14,GGCTACACGTGGCAGG,0.18
15,TGTCTCACGTGGAATG,0.15
16,GAGATCACGTGAGGGA,0.38
17,GTAGGCACGTGGAGAT,-0.07
18,GATCTCACGTGTGTTT,0.39
19,TAGCGCACGTGTGAAT,0.09
20,TAAATCACGTGGGTTT,-0.04
21,TGAGGCACGTGTTTTT,-0.01
22,TAGTGCACGTGCTGGG,-0.13
23,TGTGGCACGTGGTCTG,-0.14

row,Sequence,relative binding free energy [kcal/mol]
1,ATAGGCACGTGAATGT,-0.05
2,TGTCACACGTGGTAAA,0.11
3,AGTCTCACGTGTGGAA,0.29
4,TGAAACACGTGTATGT,0.04
5,TGGGCCACGTGGTCGT,-0.21
6,TTGTCCACGTGTATAG,0.03
7,TAGTACACGTGTTCAT,0.16
8,ATCGTCACGTGGGTAT,-0.03
9,TTCCACACGTGGTTTG,0.14
10,GTAGTCACGTGGTTCT,0.02
11,GTATCCACGTGGGGAG,-0.05
12,GCTAACACGTGGTGGT,0.05
13,TGAGACACGTGTTCGG,-0.05
14,GTACGCACGTGGGTGG,-0.21
15,GACGGCACGTGAGGCG,0.13
16,TTGGGCACGTGGTACG,-0.25
17,GCTATCACGTGTGGGT,0.15
18,TGCATCACGTGAGGGT,0.29
19,TGGAGCACGTGATGTC,0.13
20,TAATTCACGTGTCGGC,0.39
21,CGAGTCACGTGTGTTA,0.06
22,GTATGCACGTGGTGAC,-0.1
23,GGACTCACGTGGGTTA,0.1

row,Sequence,relative binding free energy [kcal/mol]
1,TGGTGCACGTGTAAAT,0.19
2,AACTGCACGTGTATTT,0.13
3,GAAATCACGTGGGGTA,0.08
4,ATAATCACGTGGTTTC,0
5,GAGAGCACGTGTCGTT,0.01
6,ATATTCACGTGGATAT,0.13
7,TAGGACACGTGGTCAT,-0.03
8,TGGTGCACGTGAGCGA,0.15
9,TTGACCACGTGTAGGT,-0.17
10,TTTTCCACGTGATTGA,0.14
11,TGGCTCACGTGCAGTT,0.06
12,TTGTTCACGTGGTTCG,0.39
13,ATGGTCACGTGGGCTC,0.11
14,GGAATCACGTGAGGTG,0.47
15,AGGTACACGTGGTAGA,0.07
16,TTGATCACGTGCCCGG,0.36
17,CTTTCCACGTGTGTTG,-0.08
18,AGTGTCACGTGGGCAA,-0.07
19,GCGTTCACGTGAAGTG,0.34
20,TTCTGCACGTGTGTGC,0.11
21,AGTCGCACGTGTGGTC,0.08
22,TTTGGCACGTGTGAGC,-0.12
23,TGGTACACGTGGGCGA,-0.19
